# PubChem BioAssay AID686971 (National Center for Advancing Translational Sciences (NCATS), 2013)
# The whole screen tested about 360,000 compounds, of which about 7,500 (2.1%) were called active. The shares of active, inactive and inconclusive entries below differ from those in the screen. Calls follow the shape of the dose curve; as a rule, active = well fitted cell-killing curve with a large enough effect; inconclusive = small, poorly fitted or top-dose-only effect, or effect the other way, or another doubt; inactive = no such curve, though single readings can be large or run the other way. Potencies of inconclusive entries are left out as doubtful fits.
# Test: qHTS for induction of synthetic lethality in tumor cells producing 2HG: qHTS for the HT-1080-IDH1KD cell line;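 as to activity, negative = toxicity: 0% = DMSO wells and -100% = cell-free medium wells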
# Details: HT-1080 IDH1 knockdown viability, ATP luminescence, 48 h; activity, negative = toxicity: at 46.1 µM (top of the series) unless noted
# Outline: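 HT-1080-IDH1KD cells (IDH1 knocked down), 750/well in RPMI with 5% FBS, treated with compound 48 h at 37 degrees C. Viability by CellTiter-Glo luminescence, normalised to DMSO and no-cell wells; concentration-response curves classed.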
# Potency is read from the fitted curve at half-maximal effect; tags tell the direction and shape of the fitted curve.
SMILES,"activity, negative = toxicity",Potency
O=C(NCCN1C(=O)S/C(=C\c2ccc(F)cc2)C1=O)c1cccc(S(=O)(=O)N2CCOCC2)c1,inactive: -28%,–
Clc1ccccc1N1CCN(Cc2c[nH]c3ccccc23)CC1,–,active: 18.4 µM
Cc1cc(C2(c3ccc(O)c(C)c3)C(=O)Nc3ccccc32)ccc1O,inactive: -11.9% [at 9.24 µM],–
CC1S/C(=N\N=C\c2cccc([N+](=O)[O-])c2)N(C(C)(C)C)C1=O (centres undefined),–,"inconclusive [cytotoxic, single point]"
Nc1ccc(Oc2ccc3nc(-c4ccccc4)c(-c4ccc([N+](=O)[O-])cc4)nc3c2)cc1,inactive: -1.06%,–
Cc1cc(C)cc(Oc2nc3ccccn3c(=O)c2/C=C(\C#N)C(=O)NC2CCS(=O)(=O)C2)c1 (centres undefined),–,"inconclusive [cytotoxic, single point]"
COc1cccc(-n2sc3c(c2=S)-c2cc(OC)ccc2NC3(C)C)c1,–,"inconclusive [cytotoxic, single point]"
COC(=O)[C@H]1C[C@H](OC(=O)NCC2CCCCC2)[C@@]2(O)CN(S(=O)(=O)c3ccc(C)cc3)CC2[C@H]1C(=O)OC (some centres undefined),–,"inconclusive [cytotoxic, single point]"
CCOC(=O)c1c(CC(C)C)csc1/N=C/C1=C(O)CCCC1=O,–,"inconclusive [cytotoxic, single point]"
COc1ccccc1N1CCN(C(=O)C2CCN(C(=O)c3ccc(C(C)(C)C)cc3)CC2)CC1,inactive: -4.18%,–
CCc1nc2c(OCC=C(C)C)cccn2c1N(C)C(=O)c1ccccc1F,–,"inconclusive [cytotoxic, partial curve]"
FC(F)(F)c1cccc(-c2cc3ccccc3nc2N2CCCC2)c1,–,"inconclusive [cytotoxic, single point]"
O=[N+]([O-])c1ccccc1C=NN1CCCCCC1,inactive: -8.9%,–
COc1cc(O)c(CC=C(C)C)c(O)c1C(=O)CCc1ccc(O)cc1,inconclusive: -30.8% [cytotoxic],–
COC(=O)c1ccccc1NC(=O)COC(=O)/C=C/c1ccco1,inactive: 4.77%,–
Cc1cc(C)cc(NS(=O)(=O)c2ccc(NC(=S)NC(=O)c3ccc(Br)o3)cc2)c1,–,"inconclusive [cytotoxic, partial curve]"
CCC(C)(C)NC(=O)C1CCCN(S(=O)(=O)c2ccc3c(c2)CC(C)N3C(=O)C2CC2)C1 (centres undefined),inactive: -3.33%,–
COC(=O)C1=CN(c2cccc(Cl)c2)C=C(C(=O)OC)C1c1cccc(OC)c1,–,"inconclusive [cytotoxic, single point]"
Clc1cccc(CN2CCc3c([nH]c4ccccc34)C2)c1,–,"inconclusive [cytotoxic, single point]"
Cc1ccccc1NS(=O)(=O)c1cc(C(=O)NCCC2=CCCCC2)ccc1Cl,–,"inconclusive [cytotoxic, single point]"
CC(=O)Nc1cccc(-c2ccnc3c2CC(C(=O)Nc2ccc4c(c2)OCO4)O3)c1 (centres undefined),–,active: 2.31 µM
C=CCOc1ccccc1CNc1ccc2c(c1)OCCO2,–,"inconclusive [cytotoxic, single point]"

SMILES,"activity, negative = toxicity",Potency
O=C(Cc1ccccc1)Nc1nonc1NC(=O)c1ccccc1,–,"inconclusive [cytotoxic, single point]"
COc1cc(C=O)c(Br)cc1OCC(=O)NCc1ccccc1,–,"inconclusive [cytotoxic, full curve]"
CCOC(=O)[C@]12CCCC=C1N(Cc1ccco1)C(=O)[C@H](CC(=O)NCCCCc1ccccc1)C2,–,"inconclusive [cytotoxic, single point]"
Cc1ccc2nc(Cl)c3cc(C(=O)NCCCN4CCCC4)sc3c2c1,–,"inconclusive [cytotoxic, single point]"
COc1cccc(/C=N\NC(=O)C2C(=O)NCC2c2ccccc2)c1O (centres undefined),–,"inconclusive [cytotoxic, single point]"
CCc1[nH]nc2c1C(c1ccc(Br)s1)C(C#N)=C(N)O2 (centres undefined),–,"inconclusive [cytotoxic, single point]"
Cc1ccc(S(=O)(=O)N(C)C[C@H]2Oc3c(NC(=O)Nc4cccc5ccccc45)cccc3C(=O)N([C@@H](C)CO)C[C@@H]2C)cc1,–,"inconclusive [cytotoxic, single point]"
Cc1oc(-c2ccc3c(c2)OCCO3)cc1C(=O)O,–,"inconclusive [cytotoxic, partial curve]"
NC(=O)CSc1oc(-c2ccco2)nc1S(=O)(=O)c1ccccc1,inactive: 3.97%,–
CCc1cc(-c2n[nH]c(C)c2-c2ccccc2Cl)c(O)cc1OC,–,"inconclusive [cytotoxic, single point]"
Fc1ccc(C(CCNCc2ccccn2)c2ccc(Cl)cc2)cc1 (centres undefined),–,active: 20.6 µM
CCSC(SCC)[C@H](O)[C@@H](O)[C@H](O)[C@H](O)CO,–,"inconclusive [rising, full curve, poor fit]"
CCOC(=O)c1c(NC(=O)CN(C)C2CCN(C)CC2)sc(C(=O)Nc2ccccc2)c1C,–,"inconclusive [cytotoxic, single point]"
COc1cc2c3c(c1OC)-c1cc4c(cc1CC3(C#N)N(C(=O)c1ccccc1)CC2)OCO4 (centres undefined),inactive: -5.64%,–
CC(C)(C)c1cccc(Cn2nnc3ccccc32)c1O,inactive: -1.15%,–
O=C(/C=C/c1ccc(F)cc1)Nc1ccc(S(=O)(=O)N2CCOCC2)cc1,inactive: -0.796%,–
CCOC(=O)C1=C(C)NC(=S)N(C(C)=O)C1c1ccc(Cl)cc1 (centres undefined),–,active: 12.6 µM
S=C(NN=C(c1ccccc1)c1ccccn1)N(Cc1ccccn1)Cc1ccccn1,–,active: 8.2 µM
COc1ccc(S(=O)(=O)N2CCCC2CNC(=O)C(=O)NCCc2ccccc2)cc1 (centres undefined),–,active: 18.4 µM
CCCCC(=O)N1CCN(c2nc3ccc(F)cc3s2)CC1,–,"inconclusive [cytotoxic, single point]"
Oc1ccccc1C=NN=CC=Cc1ccccc1,–,"inconclusive [rising, full curve]"
N#Cc1nc(N)nc(N(c2ccccc2)c2ccccc2)n1,–,"inconclusive [cytotoxic, single point]"
